Laboratory results: the RNAGym collection of RNA variant scans (doi:10.7554/elife.90254)
The source gives no read counts; variants with many changes may rest on few reads.

B1: LINE1-full (parent)
chain: UACGUAGGUGGUUUUCCCCUGAUAGUGCUAAGGGGGCCUGGAAGUUUGGACUGGGCAGAGCUCAACACAGCGUGGCAAAGUGGCUGUGGCUAGACUGCCUCUCUGGAUUCCUCGUCACUCAGCAGGGCAUCUCUGAGAGAAAUGCC

Variants of: B1
Test: self-cleavage, relative activity (ratio to wild type); higher = more cleavage; in vitro, sequencing; the parent is a self-cleaving ribozyme
With U23A G82A A117U the self-cleavage was 1.92.
G33A U96C U108C showed a self-cleavage of 0.05.
A2G G34A G105A showed a self-cleavage of 1.44.
In the case of U29C A30G U46A A136U, the self-cleavage is reported as 2.8.
In the case of A2G G55A A136G, the self-cleavage is reported as 0.32.
G4A A92U U143C G144A showed a self-cleavage of 0.99.
In the case of A22U A94G U102A, the self-cleavage is reported as 0.
Variant U9A A69U U81C U85C A141G has a self-cleavage of 0.08.
With C17U A42U U87C the self-cleavage was 0.05.
Variant U15C G35A G55A A59G U112C A124G has a self-cleavage of 0.07.
In the case of A78U U119A A129G, the self-cleavage is reported as 2.94.
In the case of A50G A78G U85C A107U U143G, the self-cleavage is reported as 0.
In the case of U73A U102C U134C, the self-cleavage is reported as 1.76.
A2G A77G A107U gave a self-cleavage of 1.37.
G4C U46G U47C gave a self-cleavage of 1.02.
For A67G U73A A124G A136G, the self-cleavage was 0.63.
Variant U15C A31U A64G U115C has a self-cleavage of 0.
U20C A50G A94G showed a self-cleavage of 0.33.
U46C U47C A65G gave a self-cleavage of 0.
For U29C U39C U102C A138G, the self-cleavage was 2.3.
For A42U U104G A140G, the self-cleavage was 0.43.
With U9A U13G U47C A78G A136G the self-cleavage was 1.6.
U14C A67G U109C C111A gave a self-cleavage of 0.35.
In the case of A43G G44U G70U U87A A117G, the self-cleavage is reported as 0.07.
With U47G G60C A67U the self-cleavage was 0.04.
A42G U112C U130C gave a self-cleavage of 0.38.
For A57C U85A A124G, the self-cleavage was 0.14.
Variant U23C U112C G114A has a self-cleavage of 2.41.
Variant U14C C56U C111U A117U A121G U130C has a self-cleavage of 0.24.
Work on A22G U47A A79G U115A yielded a self-cleavage of 1.33.
For U14C U26C C98A U112C U119C U130C, the self-cleavage was 0.46.
With A124U A129G A140G the self-cleavage was 0.74.
For A24G A31G A57G U62C U130C, the self-cleavage was 0.
A22G G40A U46C A140U showed a self-cleavage of 1.56.
C37A U104C A121G showed a self-cleavage of 1.64.
With C19U U47C U130C A140G the self-cleavage was 1.29.
In the case of U12G U91C A136G, the self-cleavage is reported as 0.
C28U U52C G125A G137U gave a self-cleavage of 0.11.
With U47C A124G U132C the self-cleavage was 0.42.
Variant A129C A140G A141G has a self-cleavage of 1.27.
Work on U12G U62C U85C yielded a self-cleavage of 0.28.
With U13A A57G A79U the self-cleavage was 1.25.
G54A A79G U130C showed a self-cleavage of 0.43.
In the case of U12A C61U A94G A121G, the self-cleavage is reported as 0.
In the case of A43G G53A A92C, the self-cleavage is reported as 0.15.
U20C A42G U85A U108A gave a self-cleavage of 0.
Work on C98U U102A U132A G135A A141G yielded a self-cleavage of 1.1.
Work on U20A A64G U96A U100A yielded a self-cleavage of 0.19.
C3U G27A A64U A141G showed a self-cleavage of 0.18.
For G8A A78G U109C A121U, the self-cleavage was 0.97.
With U29A A43G C145A the self-cleavage was 1.46.
In the case of G11A A42U C66U, the self-cleavage is reported as 0.04.
U23A A124U A142G showed a self-cleavage of 1.36.
A6G U20A U91C A94U gave a self-cleavage of 0.41.
With U5C U39C U132C the self-cleavage was 1.31.
U39C A65G U73C gave a self-cleavage of 0.
For G40A A59U U143C, the self-cleavage was 0.41.
G36U U134A A140G showed a self-cleavage of 0.37.
Variant A2G A31G A65G has a self-cleavage of 0.
Variant A31U G33A A69G U73G A79G A129U has a self-cleavage of 0.67.
For A59U U62C U81C G82A A92U U96C, the self-cleavage was 0.
U39C A59G A138G gave a self-cleavage of 0.13.
For G41U U85G U130C, the self-cleavage was 0.07.
U14C A43U A78C G106A A117C gave a self-cleavage of 2.85.
Variant A77G U81C U115A has a self-cleavage of 1.72.
With U14C U26C A57G A65U U96A the self-cleavage was 0.56.
In the case of U39A A69G A124U, the self-cleavage is reported as 0.51.
Work on A42G A65G A77G A136G yielded a self-cleavage of 0.
Variant A22G G49A C68U A78G has a self-cleavage of 0.06.
Variant U14C A24G A59G U73A has a self-cleavage of 0.32.
With U62C G72A A79G the self-cleavage was 0.02.
With U15C A67G U85A U109C U130C the self-cleavage was 0.71.
With U13C G27A U62C the self-cleavage was 0.03.
Work on U29C U46A G54A U102A yielded a self-cleavage of 0.71.
Work on A69G A77U U109C A140G yielded a self-cleavage of 0.
Work on U26A U52C C113U yielded a self-cleavage of 0.43.
U20C U45A A138G U143C showed a self-cleavage of 1.1.
With C19U C101A U115A A136G the self-cleavage was 1.76.
Variant U1A A79G A136G has a self-cleavage of 0.48.
In the case of U14C U47C A59G A142C, the self-cleavage is reported as 0.26.
For U13C A67U A77U A138G, the self-cleavage was 0.12.
In the case of U20C A42G C51U A117U, the self-cleavage is reported as 1.39.
Variant A24G U62C U96C U100C has a self-cleavage of 0.
In the case of U12C C63A A78G U91C C95U U130G, the self-cleavage is reported as 0.05.
For C3U U14C A77G A92U A129U, the self-cleavage was 0.9.
In the case of U62C G86A A140G, the self-cleavage is reported as 0.06.
For U15C A31U U85A A107G U119C, the self-cleavage was 0.11.
Work on U87A U112C A117U yielded a self-cleavage of 0.04.
With A50G A57G C123U the self-cleavage was 0.23.
Work on U5C A78G U109A U130C yielded a self-cleavage of 1.25.
For U39G U45C A142G, the self-cleavage was 1.62.
G7A U130C U132C gave a self-cleavage of 1.29.
In the case of U14C C19U A43U U73C A77U, the self-cleavage is reported as 0.8.
Work on G83A U112A G125U yielded a self-cleavage of 0.83.
For G36A A57U A78G, the self-cleavage was 0.
C19U U39C U115C showed a self-cleavage of 2.63.
In the case of U15C A42G U109A, the self-cleavage is reported as 1.61.
U20G C37G U47C U143C showed a self-cleavage of 0.68.
Work on U9A U52A A78G yielded a self-cleavage of 2.12.
Work on U12G U13C U14C A22G G89A yielded a self-cleavage of 0.
Work on U29C U112C G114A U130A yielded a self-cleavage of 1.76.
U12C U81A U91A A136U gave a self-cleavage of 1.3.
In the case of G53A C61G U143C, the self-cleavage is reported as 0.04.
In the case of A57U U102C A142G, the self-cleavage is reported as 0.
A2G A79C A140G showed a self-cleavage of 1.19.
Variant U15C U26A A31U G36U U47C has a self-cleavage of 0.95.
For A6G U100C U102A A124U, the self-cleavage was 1.53.
U85A U87A A92U U108C C123U gave a self-cleavage of 0.06.
Variant U13A G35A A140G has a self-cleavage of 0.71.
With A2G U9C A50G the self-cleavage was 0.77.
For G7C U14C A50U, the self-cleavage was 0.96.
With U1C G11A U47C A141G the self-cleavage was 0.1.
U9C U12A U119A showed a self-cleavage of 0.94.
A94U U104C A117G showed a self-cleavage of 0.
For U9A U13C U85A G97A A141G, the self-cleavage was 0.
For C17G A69U A94U, the self-cleavage was 0.02.
A24G U62C A79U showed a self-cleavage of 0.17.
Variant U20A A24G A50U U130C has a self-cleavage of 1.09.
With U45C U52C A140G the self-cleavage was 1.15.
With U15C A67U A92G the self-cleavage was 0.06.
A24G G82A A121U showed a self-cleavage of 1.38.
For U26C A50U A64G, the self-cleavage was 0.23.
For U13A U15A C28G A50U A59G U73C A94U, the self-cleavage was 0.24.
Variant G34A A57G U143C has a self-cleavage of 0.95.
Variant A22U C38A A67G has a self-cleavage of 0.41.
With U26C A65U U119G U132A A140G the self-cleavage was 0.
For U14C G34A U115A G126A C146U, the self-cleavage was 1.13.
A43G U104A A124G showed a self-cleavage of 0.23.
In the case of U14C U20A G40U C84U, the self-cleavage is reported as 0.1.
U1C U87C U100A U109A U115C A121U gave a self-cleavage of 0.
A78G U119A A121U showed a self-cleavage of 0.81.
For A22U G34A A69U U104C, the self-cleavage was 0.11.
Variant A6G U12C A24G A77U U91C A121U has a self-cleavage of 0.92.
Work on U15C U20A A42G A107U A129C yielded a self-cleavage of 0.
Variant G53A U96C U100C U109C A138G has a self-cleavage of 0.07.
Variant A2G U91C U96C U134C has a self-cleavage of 0.
Variant G34U A59G U87C has a self-cleavage of 0.1.
Variant U12C U47A A136G A142G has a self-cleavage of 0.43.
U52A U85G A94U A124U U132C A138G A141G showed a self-cleavage of 0.
In the case of U15G G32A U73G A79G U112C, the self-cleavage is reported as 1.04.
A59C A78G U143C gave a self-cleavage of 1.06.
In the case of A31G A69G U134C A138G, the self-cleavage is reported as 2.12.
In the case of A30G U52A U132C A142G, the self-cleavage is reported as 0.8.
With C18U G36A U104A A107G U112C A138G the self-cleavage was 1.37.
Variant U14A A67G A140U has a self-cleavage of 0.39.
With U100C C113U U119G the self-cleavage was 1.51.
A31U U47C U134C showed a self-cleavage of 0.72.
For U13A U26A A121G, the self-cleavage was 1.01.
With A42G U73C U134C the self-cleavage was 0.38.
Variant U26G G60U C101U has a self-cleavage of 0.11.
Variant U47C A79G U85A has a self-cleavage of 0.22.
U5C U52A A57U A77U showed a self-cleavage of 0.21.
Variant U13C U14A A65G U104A has a self-cleavage of 0.1.
For U81A A92G U100A U102C, the self-cleavage was 0.61.
U15C U46C U62A A94C gave a self-cleavage of 0.12.
Work on C3U U102C U134A yielded a self-cleavage of 1.46.
In the case of C37G A57G A94U A138U A140G A142G, the self-cleavage is reported as 0.04.
For A22G U119A A121G A138G, the self-cleavage was 1.89.
U12C U119C A141G gave a self-cleavage of 1.45.
In the case of U47C U87C U96A U109C, the self-cleavage is reported as 0.
Variant U12C U73C C99U U130A has a self-cleavage of 1.15.
U45C U73C A79G showed a self-cleavage of 1.31.
In the case of U14C C38A A117U, the self-cleavage is reported as 1.25.
With U96A U100C A138G the self-cleavage was 0.06.
Work on U9C A30U A94G U130C yielded a self-cleavage of 1.31.
In the case of G72A U73A U96C, the self-cleavage is reported as 0.12.
With U5A A42G A138G U143C the self-cleavage was 0.32.
